# Source: PubChem BioAssay (Tox21)
# Several values for one entry are separate records, joined by “and”; a condition that tells them apart may be missing. Equal values may be shown once. The inconclusive results got no clear call from the source; some entries with a clear call stand among them for comparison. Where a call stands in place of a potency, no number is given. For part of these data: Potencies beside an inconclusive call are fits to weak or partial responses and may not hold up. Activity calls are given as the source filed them. Unless noted, the call rests on the fitted dose curve; in most records, active means well fitted curve in the direction sought with a large enough effect in the repeat runs; inconclusive means weak or mixed curves; inactive means no such curve, though single readings can be large; an effect the other way counts as inactive or inconclusive.
# Tests used:
# [1] = qHTS assay to identify small molecule agonists of H2AX - cell viability counter screen (AID 1224847; calls by dose curve; further: nearly all actives have a fitted effect of over 30% in size; further: potency means the concentration at half of the fitted maximal effect)
# In short: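 CHO-K1 wt, 1000 cells/well, o/n 37C; cpds 15 conc, 3 h 37C, 0.76% DMSO; CellTiter-Glo, 30 min RT, luminescence.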
# [2] = molecular target: Thyrotropin receptor (Homo sapiens) (UniProt P16473); assay: qHTS assay to identify small molecule antagonists of the thyroid stimulating hormone receptor (TSHR) signaling pathway (AID 1259385; calls by dose curve; further: nearly all actives have a fitted effect of over 20% in size; further: potency means the concentration at half of the fitted maximal effect); settings: TSHR-HEK293 cAMP HTRF, TSH-stimulated antagonist mode; activity change, negative = inhibition: at 92.4 µM (top of the series) unless noted
# UniProt P16473, sequence (P16473 whole entry, looked up): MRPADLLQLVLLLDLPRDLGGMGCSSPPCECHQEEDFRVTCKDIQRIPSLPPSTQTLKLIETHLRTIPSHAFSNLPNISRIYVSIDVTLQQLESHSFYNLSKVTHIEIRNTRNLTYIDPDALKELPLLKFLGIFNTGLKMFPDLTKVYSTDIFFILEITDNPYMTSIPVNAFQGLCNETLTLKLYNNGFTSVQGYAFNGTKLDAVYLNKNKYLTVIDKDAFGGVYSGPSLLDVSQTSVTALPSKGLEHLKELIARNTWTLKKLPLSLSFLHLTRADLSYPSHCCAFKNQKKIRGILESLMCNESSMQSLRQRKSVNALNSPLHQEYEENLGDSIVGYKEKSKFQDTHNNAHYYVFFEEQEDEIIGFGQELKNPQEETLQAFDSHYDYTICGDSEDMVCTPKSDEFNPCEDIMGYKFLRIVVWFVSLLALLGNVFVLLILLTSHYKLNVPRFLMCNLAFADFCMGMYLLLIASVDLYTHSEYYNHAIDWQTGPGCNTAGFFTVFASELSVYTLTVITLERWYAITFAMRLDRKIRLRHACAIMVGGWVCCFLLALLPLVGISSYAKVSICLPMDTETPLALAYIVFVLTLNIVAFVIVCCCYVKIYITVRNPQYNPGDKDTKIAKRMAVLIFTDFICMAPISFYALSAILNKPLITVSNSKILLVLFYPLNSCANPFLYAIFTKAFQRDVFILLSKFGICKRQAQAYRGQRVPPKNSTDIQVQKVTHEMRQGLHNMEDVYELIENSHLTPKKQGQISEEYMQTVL
# In short: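 TSHR-HEK293 cells (800/well) plated 18 h, then compounds with Ro20-1724 and TSH at 1.5 ng/mL final, 30 min at room temperature. cAMP quantified by HTRF (cAMP-d2/anti-cAMP-cryptate, 1 h); 15 concentrations in triplicate.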
# [3] = molecular target: Nuclear receptor subfamily 1 group I member 2 (Homo sapiens) (UniProt O75469); assay: Human pregnane X receptor (PXR) small molecule agonists, qHTS assay (AID 1346982); further: nearly all actives have a fitted effect of over 35% in size; further: potency means the concentration at half of the fitted maximal effect
# UniProt O75469, sequence (O75469 whole entry, looked up): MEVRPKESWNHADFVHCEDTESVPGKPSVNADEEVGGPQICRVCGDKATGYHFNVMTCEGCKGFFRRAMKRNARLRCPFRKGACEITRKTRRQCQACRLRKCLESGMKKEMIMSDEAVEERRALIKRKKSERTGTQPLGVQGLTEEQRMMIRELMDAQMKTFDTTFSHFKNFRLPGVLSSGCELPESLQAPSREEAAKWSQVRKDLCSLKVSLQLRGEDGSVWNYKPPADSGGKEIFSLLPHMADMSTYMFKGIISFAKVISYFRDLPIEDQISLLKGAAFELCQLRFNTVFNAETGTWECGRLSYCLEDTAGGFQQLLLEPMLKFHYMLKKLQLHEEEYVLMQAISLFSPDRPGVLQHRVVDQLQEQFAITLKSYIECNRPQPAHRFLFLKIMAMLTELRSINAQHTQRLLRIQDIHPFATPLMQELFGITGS
# In short: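 Luminescence (ONE-Glo, 30 min RT) after 24 hr compound exposure of PXR-Luc HepG2 cells; cells rested 5 hr post-plating in 5% charcoal-stripped FBS medium.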
# [4] = Caspase-3/7 induction in HepG2 cells by small molecules, qHTS cell viability counter screen (AID 1346981); further: nearly all actives have a fitted effect of over 30% in size; further: potency means the concentration at half of the fitted maximal effect
# In short: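 Counter screen for cytotoxicity: HepG2 exposed 16 hr to compounds, then CellTiter-Fluor viability signal (fluorescence, 1 hr reagent incubation).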
# [5] = molecular target: Cytochrome P450 3A4 (Homo sapiens) (UniProt P08684); assay: Cytochrome P450 Family 3 Subfamily A Member 4 (CYP3A4) small molecule antagonists: luciferase reporter qHTS assay (AID 1671201); further: nearly all actives have a fitted effect of over 50% in size; further: potency means the concentration at half of the fitted maximal effect
# UniProt P08684, sequence (P08684 whole entry, looked up): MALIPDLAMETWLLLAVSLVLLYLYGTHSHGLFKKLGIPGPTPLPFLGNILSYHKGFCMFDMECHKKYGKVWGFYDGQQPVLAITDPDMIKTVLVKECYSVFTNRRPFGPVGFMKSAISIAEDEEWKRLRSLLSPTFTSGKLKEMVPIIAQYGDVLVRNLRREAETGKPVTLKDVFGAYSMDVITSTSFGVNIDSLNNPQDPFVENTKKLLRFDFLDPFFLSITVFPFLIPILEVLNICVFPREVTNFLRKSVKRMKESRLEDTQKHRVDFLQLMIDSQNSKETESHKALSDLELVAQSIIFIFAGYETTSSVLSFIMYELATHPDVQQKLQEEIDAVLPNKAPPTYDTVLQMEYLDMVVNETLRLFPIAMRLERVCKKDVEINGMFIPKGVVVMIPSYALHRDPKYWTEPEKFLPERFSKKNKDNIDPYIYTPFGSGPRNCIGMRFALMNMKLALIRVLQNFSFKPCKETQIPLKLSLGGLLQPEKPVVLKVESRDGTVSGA
# In short: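 Luminescent readout (RLU) proportional to CYP3A4 activity, from luciferin generated off a proluciferin substrate. Enzyme–substrate mix plus compound 10 min at room temp, NADPH regeneration 1 h, detection reagent 20 min.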
# [6] = molecular target: Estrogen receptor (Homo sapiens) (UniProt P03372); assay: qHTS assay to identify small molecule antagonists of the estrogen receptor alpha (ER-alpha) signaling pathway (AID 743069; active means well fitted curve in the direction sought with a large enough effect in the signal ratio in the repeat runs, not every such curve was filed as active; inconclusive means weak or mixed curves, or effect the other way; inactive means no such curve, though single readings can be large or run the other way; the % refers to the signal ratio; further: potency means the concentration at half of the fitted maximal effect); settings: HEK293 ER-alpha-UAS-bla, beta-lactamase ratio, antagonist mode; activity, negative = inhibition: at 69.4 µM (top of the series) unless noted
# UniProt P03372, sequence (P03372 whole entry, looked up): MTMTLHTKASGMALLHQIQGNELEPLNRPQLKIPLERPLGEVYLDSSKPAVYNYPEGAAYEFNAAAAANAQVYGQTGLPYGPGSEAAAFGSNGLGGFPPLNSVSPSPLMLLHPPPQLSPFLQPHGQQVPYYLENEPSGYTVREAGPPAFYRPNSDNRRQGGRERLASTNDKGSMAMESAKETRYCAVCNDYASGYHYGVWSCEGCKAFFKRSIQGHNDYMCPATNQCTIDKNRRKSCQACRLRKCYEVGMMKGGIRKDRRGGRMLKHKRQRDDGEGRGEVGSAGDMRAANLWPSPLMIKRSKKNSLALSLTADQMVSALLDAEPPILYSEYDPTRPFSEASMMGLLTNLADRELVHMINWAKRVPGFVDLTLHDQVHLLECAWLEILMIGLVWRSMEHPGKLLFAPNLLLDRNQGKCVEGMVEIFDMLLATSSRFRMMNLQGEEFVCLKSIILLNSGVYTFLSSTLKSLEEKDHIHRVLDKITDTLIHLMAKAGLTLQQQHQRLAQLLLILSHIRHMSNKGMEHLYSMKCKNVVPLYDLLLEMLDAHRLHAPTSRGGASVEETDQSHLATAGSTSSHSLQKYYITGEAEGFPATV
# In short: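 HEK293 ER-alpha-UAS-bla GripTite cells, held overnight in 2% charcoal-stripped FBS, 5,000 cells/well, preincubated 4 h, then compound plus 17beta-estradiol for 18 h at 37C. Beta-lactamase read by LiveBLAzer B/G FRET substrate, 2 h at room temperature.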
# [7] = qHTS assay to identify small molecule antagonists of the vitamin D receptor (VDR) signaling pathway - cell viability counter screen (AID 743225); settings: VDR-bla HEK293T viability, CellTiter-Glo luminescence, 16 h; viability change, negative = cytotoxic: at 61 µM (top of the series) unless noted; further: nearly all actives have a fitted effect of over 50% in size; further: potency means the concentration at half of the fitted maximal effect
# In short: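 Viability counter screen run in the same wells as the beta-lactamase reporter assay: HEK 293T VDR-UAS-bla cells, 16 h compound exposure at 37C with 3 nM (final) 1-alpha,25-dihydroxyvitamin D3. CellTiter-Glo luminescence, 30 min, room temperature.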
# [8] = qHTS RealTime-Glo MT Cell Viability Assay in HEK293 cells - 32 hour (AID 1224868); further: nearly all actives have a fitted effect of over 50% in size; further: potency means the concentration at half of the fitted maximal effect
# In short: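 Homogeneous bioluminescent viability format in HEK293 cells (600 cells/well). Following 5 h at 37 C/5% CO2, 23 nL compound was pintooled; the signal was measured repeatedly during 40 h incubation.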
# [9] = Caspase-3/7 induction in CHO-K1 cells by small molecules, qHTS cell viability counter screen (AID 1346979); further: nearly all actives have a fitted effect of over 35% in size; further: potency means the concentration at half of the fitted maximal effect
# In short: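 CHO-K1 wt, 1,500 cells/well; 5hr pre-incubation 37C/5% CO2; compound pin transfer (DMSO); 16hr exposure; CellTiter-Fluor added, 1hr, fluorescence read.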
# [10] = molecular target: Vitamin D3 receptor (Homo sapiens) (UniProt P11473); assay: qHTS assay to identify small molecule agonists of the vitamin D receptor (VDR) signaling pathway (AID 743222; calls by dose curve; further: potency means the concentration at half of the fitted maximal effect); settings: HEK293T VDR-UAS-bla, beta-lactamase FRET ratio, 16 h; activation: at 63.5 µM (top of the series) unless noted
# UniProt P11473, sequence (P11473 whole entry, looked up): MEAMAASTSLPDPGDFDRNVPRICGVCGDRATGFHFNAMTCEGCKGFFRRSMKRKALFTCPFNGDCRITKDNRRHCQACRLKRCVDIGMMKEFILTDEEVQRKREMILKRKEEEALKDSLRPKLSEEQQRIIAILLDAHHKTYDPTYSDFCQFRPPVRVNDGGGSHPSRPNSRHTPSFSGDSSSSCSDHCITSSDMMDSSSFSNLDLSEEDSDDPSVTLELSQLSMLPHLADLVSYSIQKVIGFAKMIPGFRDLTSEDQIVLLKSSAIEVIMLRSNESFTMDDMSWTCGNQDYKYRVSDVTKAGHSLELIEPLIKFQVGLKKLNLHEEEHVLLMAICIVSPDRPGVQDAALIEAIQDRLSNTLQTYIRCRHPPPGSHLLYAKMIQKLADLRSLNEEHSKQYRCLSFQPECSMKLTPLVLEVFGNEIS
# In short: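 Agonist activity measured in VDR-bla reporter cells. Exposure 16 h, 37C, 5% CO2; detection by B/G FRET substrate, 2 h RT.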
# [11] = molecular target: Estrogen receptor beta (Homo sapiens) (UniProt Q92731); assay: qHTS assay to identify small molecule agonists of the estrogen receptor beta (ER-beta) signaling pathway (AID 1259377; active means well fitted activation curve with a large enough effect in the signal ratio in the repeat runs, not every such curve was filed as active; inconclusive means weak or mixed curves, or effect the other way; the % refers to the signal ratio); settings: ER-beta-UAS-bla HEK293T, beta-lactamase FRET ratio, 16 h; activation: at 92.4 µM (top of the series) unless noted
# UniProt Q92731, sequence (Q92731 whole entry, looked up): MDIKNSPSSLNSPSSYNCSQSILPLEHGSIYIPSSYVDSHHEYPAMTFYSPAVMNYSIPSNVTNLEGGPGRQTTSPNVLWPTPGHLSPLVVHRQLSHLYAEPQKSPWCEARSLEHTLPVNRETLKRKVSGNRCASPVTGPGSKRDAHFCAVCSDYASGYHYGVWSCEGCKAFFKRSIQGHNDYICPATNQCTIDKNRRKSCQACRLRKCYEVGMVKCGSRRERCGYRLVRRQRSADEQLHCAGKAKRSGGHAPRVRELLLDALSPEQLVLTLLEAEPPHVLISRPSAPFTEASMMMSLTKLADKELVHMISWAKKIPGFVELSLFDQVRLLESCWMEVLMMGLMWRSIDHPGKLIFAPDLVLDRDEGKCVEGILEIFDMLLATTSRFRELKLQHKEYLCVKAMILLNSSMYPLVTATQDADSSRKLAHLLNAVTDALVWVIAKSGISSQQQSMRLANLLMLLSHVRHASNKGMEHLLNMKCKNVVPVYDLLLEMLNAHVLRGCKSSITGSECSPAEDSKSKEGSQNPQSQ
# In short: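 Beta-lactamase reporter readout: fluorescence of LiveBLAzer B/G FRET substrate after 2 h at room temperature, following 16 h compound treatment of ER-beta-UAS-bla HEK293T cells at 37C in 2% charcoal-stripped FBS medium.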
# [12] = qHTS assay to identify small molecule antagonists of the estrogen receptor alpha (ER-alpha) signaling pathway - cell viability counter screen (AID 743074; calls by dose curve;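 further: HEK293 cells carrying ER-alpha-UAS-bla reporter stimulated with 17beta-estradiol; nearly all actives have a fitted effect of over 45% in size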)
# [13] = molecular target: Estrogen receptor (Homo sapiens) (UniProt P03372); assay: qHTS assay to identify small molecule agonists of the estrogen receptor alpha (ER-alpha) signaling pathway using the BG1 cell line (AID 743079); settings: BG1Luc4E2 cells, ERE-luciferase agonist, 22 h; for Potency: activation: at 70.3 µM (top of the series) unless noted; further: potency means the concentration at half of the fitted maximal effect; on all read-outs here: nearly all actives have a fitted effect of over 20% in size
# [14] = qHTS assay to identify small molecule agonists of the constitutive androstane receptor (CAR) signaling pathway - cell viability counter screen (AID 1224836); further: nearly all actives have a fitted effect of over 45% in size; further: potency means the concentration at half of the fitted maximal effect
# In short: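 Viability read-out: CellTiter-Fluor fluorescence after 23 h compound exposure at 37 C/5% CO2 in double-stable HepG2-CYP2B6-hCAR cells, with PK11195 present at 0.75 uM final; compounds tested in 15-point titration.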
# [15] = A CellTox Green Cytotoxicity Assay to monitor cytotoxicity in HEK293 cells - 40 hour (AID 1224871); further: nearly all actives have a fitted effect of over 45% in size; further: potency means the concentration at half of the fitted maximal effect
# In short: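 Each value comes from one timepoint of a single continuous run in which HEK293 cells with CellTox Green were exposed to compound for up to 40 h at 37 C, dye fluorescence rising with cell death.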
# [16] = molecular target: Cytochrome P450 2C19 (Homo sapiens) (UniProt P33261); assay: Cytochrome P450 Family 2 Subfamily C Member 19 (CYP2C19) small molecule antagonists: luciferase reporter qHTS assay (AID 1671197); further: nearly all actives have a fitted effect of over 65% in size; further: potency means the concentration at half of the fitted maximal effect
# UniProt P33261, sequence (P33261 whole entry, looked up): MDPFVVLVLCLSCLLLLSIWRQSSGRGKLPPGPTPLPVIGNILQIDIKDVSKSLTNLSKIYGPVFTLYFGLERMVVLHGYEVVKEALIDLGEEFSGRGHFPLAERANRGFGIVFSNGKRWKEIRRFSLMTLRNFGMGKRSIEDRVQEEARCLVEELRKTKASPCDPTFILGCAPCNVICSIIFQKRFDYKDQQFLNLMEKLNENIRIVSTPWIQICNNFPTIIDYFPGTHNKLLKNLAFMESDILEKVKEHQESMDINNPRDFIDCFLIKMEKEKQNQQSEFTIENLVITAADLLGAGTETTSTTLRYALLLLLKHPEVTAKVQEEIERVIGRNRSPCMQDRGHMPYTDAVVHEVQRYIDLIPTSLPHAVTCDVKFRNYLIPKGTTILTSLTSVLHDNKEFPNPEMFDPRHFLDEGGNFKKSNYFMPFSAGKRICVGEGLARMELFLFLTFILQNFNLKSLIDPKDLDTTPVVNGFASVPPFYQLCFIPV
# In short: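 Relative luminescence units recorded 20 min after the detection reagent stopped a 1 h, 37C CYP2C19 reaction on proluciferin substrate, which was started by NADPH regeneration following 10 min room-temperature compound preincubation; ketoconazole positive control.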
# [17] = qHTS assay to identify small molecule agonists of the estrogen receptor beta (ER-beta) signaling pathway - cell viability counter screen (AID 1259380); further: potency means the concentration at half of the fitted maximal effect; nearly all actives have a fitted effect of over 30% in size
# In short: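 Viability of ER-beta-UAS-bla HEK293T cells was determined by CellTiter-Glo luminescence following 16 hr treatment with test compounds at 37C.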
# [18] = molecular target: Peroxisome proliferator-activated receptor gamma (Homo sapiens) (UniProt P37231); assay: qHTS assay to identify small molecule agonists of the peroxisome proliferator-activated receptor gamma (PPARg) signaling pathway (AID 743094; active means well fitted activation curve with a large enough effect in the signal ratio in the repeat runs, not every such curve was filed as active; inconclusive means weak or mixed curves, or effect the other way; inactive means no such curve, though single readings can be large or run the other way; the % refers to the signal ratio; further: potency means the concentration at half of the fitted maximal effect); settings: HEK293H PPARg-UAS-bla, beta-lactamase FRET ratio, 17 h; activation: at 57 µM (top of the series) unless noted
# UniProt P37231, sequence (P37231 whole entry, looked up): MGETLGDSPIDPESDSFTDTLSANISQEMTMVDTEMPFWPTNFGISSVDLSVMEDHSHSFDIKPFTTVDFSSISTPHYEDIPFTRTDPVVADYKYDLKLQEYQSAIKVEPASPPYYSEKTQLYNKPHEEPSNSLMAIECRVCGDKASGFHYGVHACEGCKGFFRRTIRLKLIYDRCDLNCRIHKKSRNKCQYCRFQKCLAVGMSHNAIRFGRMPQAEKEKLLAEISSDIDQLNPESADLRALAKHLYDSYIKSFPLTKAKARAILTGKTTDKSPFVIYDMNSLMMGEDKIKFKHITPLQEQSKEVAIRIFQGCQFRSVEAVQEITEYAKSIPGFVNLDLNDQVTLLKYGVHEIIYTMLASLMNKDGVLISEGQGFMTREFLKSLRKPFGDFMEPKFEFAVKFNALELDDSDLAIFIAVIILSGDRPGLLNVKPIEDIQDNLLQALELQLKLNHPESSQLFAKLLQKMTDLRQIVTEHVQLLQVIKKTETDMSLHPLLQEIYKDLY
# In short: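 Stably transfected HEK293H cells (GeneBLAzer PPARg UAS-bla) were incubated with test substances for 17 h at 37C after a 5 h pre-incubation; beta-lactamase activity was then detected by FRET substrate fluorescence.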
# [19] = qHTS assay to identify small molecule agonists of H2AX (AID 1224845; active means well fitted activation curve with a large enough effect in the signal ratio in the repeat runs, not every such curve was filed as active; inconclusive means weak or mixed curves; the % refers to the signal ratio; further: potency means the concentration at half of the fitted maximal effect); settings: CHO-K1 phospho-H2AX Ser139 HTRF, 3 h; activation (H2AX phosphorylation): at 154 µM (top of the series) unless noted
# In short: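 Wild-type CHO-K1 cells, plated overnight, exposed 3hr at 37C to 15 concentrations (0.76% DMSO final). Lysed, then HTRF anti-pH2AX (S139) cryptate and anti-H2AX-d2 antibodies, 24 hr room temperature; 665/620 nm emission read.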
# Tags describe the fitted curve by direction and shape or compound fluorescence and quenching.
compound,measurement,setting,value
SCCSCCS,Potency,[1],"inconclusive: 1.79 µM [cytotoxic, single point]"
same,Potency,[2],inactive
same,Potency,[3],"inconclusive: 30.6 µM [activator, partial curve]"
O=C(O)CSCC(=O)NC1CCSC1=O (stereo not given),Potency,[1],inactive
same,Potency,[2],inactive
same,Potency,[3],inactive
CC1(C)[C@H](C(=O)OCc2cccc(Oc3ccccc3)c2)[C@@H]1C=C(Cl)Cl,Potency,[4],inactive
same,Potency,[5],inactive
CCOc1cc([N+](=O)[O-])c(OCC)cc1N1CCOCC1,Potency,[6],"inconclusive: 19.5 µM [activator, partial curve]"
same,Potency,[7],inactive
same,Potency,[1],inactive
same,Potency,[8],active: 15.5 µM
same,Potency,[9],"inconclusive: 68.6 µM [cytotoxic, single point]"
same,Potency,[4],"inconclusive: 68.6 µM [cytotoxic, single point]"
same,Potency,[5],inactive
c1coc(Cn2cccc2)c1,Potency,[6],inactive
same,Potency,[10],"inconclusive: 1.23 µM [rising, full curve, poor fit]"
same,Potency,[1],inactive
same,Potency,[8],inactive
same,Potency,[11],inactive
NCCNC(=O)c1ccc(Cl)cn1,Potency,[12],inactive
same,Potency,[13],inactive
CC(c1cc2ccccc2s1)N(O)C(N)=O (stereo not given),Potency,[12],inactive
same,Potency,[14],inactive
same,Potency,[15],"inconclusive: 24.5 µM [activator, single point]"
same,Potency,[11],inactive
same,Potency,[16],"inconclusive: 13.8 µM [inhibitor, full curve, poor fit]"
same,Potency,[5],"inconclusive: 12.3 µM [inhibitor, partial curve]"
CCCCC(CC)C(=O)OC(C)C (stereo not given),Potency,[7],"inconclusive: 21.9 µM [cytotoxic, single point]"
same,Potency,[15],inactive
same,Potency,[9],inactive
Cc1c(Cl)cccc1Cl,Potency,[13],inactive
same,Potency,[1],inactive
same,Potency,[4],inactive
C[C@@H](O)C(=O)O,Potency,[13],active: 48 µM
same,Potency,[7],inactive
same,Potency,[14],inactive
same,Potency,[1],inactive
same,Potency,[2],inactive
same,Potency,[16],"inconclusive: 140 µM [inhibitor, single point]"
O=c1[nH]c(=O)n([C@H]2C[C@H](O)[C@@H](CO)O2)cc1Br,Potency,[6],"inactive and inconclusive: 49.8 µM [partial curve, poor fit]"
same,activation,[13]; at 70.3 µM (top of the series),inconclusive: 15.9% [phenotype inactive]
same,activation,[13]; at 95 µM (top of the series),inconclusive: 5.63% [phenotype inactive]
same,Potency,[10],inactive
same,Potency,[8],"inconclusive: 31.4 µM [rising, partial curve, poor fit]"
same,Potency,[17],"inconclusive: 55.3 µM [cytotoxic, partial curve, poor fit]"
CC(=O)c1cccnc1,Potency,[16],inactive
CC(C)C(=O)Nc1cccc(C(F)(F)F)c1,Potency,[9],"inconclusive: 29.8 µM [cytotoxic, partial curve]"
COc1cc(OC)nc(O[C@H](C(=O)O)C(OC)(c2ccccc2)c2ccccc2)n1,Potency,[14],inactive
same,Potency,[1],"inconclusive: 2.2 µM [cytotoxic, single point]"
same,Potency,[11],inactive
same,Potency,[16],inactive
CC(C(=O)O)c1ccc2c(c1)CC(=O)c1ccccc1S2 (stereo not given),Potency,[18],"inconclusive: 6.01 µM [activator, full curve]"
same,Potency,[14],inactive
same,Potency,[19],"inconclusive: 61.9 µM [fluorescent, single point]"
same,"activity change, negative = inhibition",[2],inconclusive: -9.06% [at 42.5 µM]
same,Potency,[5],inactive
CCCCOC(=O)C(C)OC(=O)CCC (stereo not given),Potency,[7],inactive
same,Potency,[14],inactive
same,Potency,[9],inactive
Cc1ccnc(NS(=O)(=O)c2ccc(N)cc2)n1,Potency,[6],inactive
same,Potency,[14],"inconclusive: 13.3 µM [cytotoxic, single point]"
same,Potency,[19],inactive
C[N+](C)(C)CCOC(=O)CCC(=O)OCC[N+](C)(C)C,Potency,[11],inactive
CCCC(=O)O[C@]1(C(=O)CCl)[C@@H](C)C[C@H]2[C@@H]3CCC4=CC(=O)C=C[C@]4(C)[C@@]3(F)C(=O)C[C@@]21C,Potency,[6],"inconclusive: 0.0017 µM [activator, full curve]"
same,Potency,[10],inactive
same,"viability change, negative = cytotoxic",[7],inconclusive: -31.6% [cytotoxic]
same,Potency,[2],"inconclusive: 13.3 µM [falling, partial curve]"
same,Potency,[9],"inconclusive: 23.7 µM [cytotoxic, partial curve]"
C[C@H]1C[C@@H](O)CC(C)(C)C1,Potency,[14],inactive
same,Potency,[15],"inconclusive: 21.9 µM [activator, single point]"
same,Potency,[11],inactive
same,Potency,[16],inactive
CCCCCCCCCOCC1CO1 (stereo not given),Potency,[3],inconclusive: 79.9 µM [activator]
same,Potency,[5],"inconclusive: 92.8 µM [inhibitor, partial curve]"
